Where two headings read alike, the source gives them in different places.
Legend:
[1] = target: Escherichia coli EF-Tu variant T34C L265C, IAEDANS/DDPM conjugate (parent EF-Tu SEQ ID NO: 3) (Escherichia coli, UniProt P0CE47, L265C/T34C); assay: biochemical; assay type: binding; conditions: 20° C., TAKM7
[2] = target: T1, Escherichia coli EF-Tu variant L265C, Dansyl conjugate (parent EF-Tu SEQ ID NO: 3) (Escherichia coli, UniProt P0CE47, L265C); assay: biochemical; assay type: binding; conditions: for koff: in presence of EDTA (10 mM), 20° C., read-out: nucleotide dissociation rate
T1 construct: […]

[3] = target: Escherichia coli EF-Tu variant T34C L265C (parent EF-Tu SEQ ID NO: 3) (Escherichia coli, UniProt P0CE47, L265C/T34C); assay: biochemical; assay type: binding; conditions: 20° C., TAKM7
[4] = target: T2, Escherichia coli EF-Tu variant E202C, Dansyl conjugate (parent EF-Tu SEQ ID NO: 3) (Escherichia coli, UniProt P0CE47, E202C); assay: biochemical; assay type: binding; conditions: 20° C., TAKM7
T2 construct: […]

[5] = Equilibrium fluorescence of labelled EF-Tu bound to GTP or GDP; assay type: binding
Protocol: Equilibrium fluorescence experiments. […] For all experiments labelled EF-Tu binary complexes were formed by incubating EF-Tu with a 100-fold molar excess of either GTP or GDP at 37° C. for 20 min.
Hydrolysis Protection Assay. EF-Tu·GTP·[^14C]Phe-tRNAPhe ternary complexes were formed as described previously and incubated at 37° C. Aliquots were removed at various time points (0-100 min) and the amount of [^14C]Phe was measured using a Tri-Carb 2800TR Perkin Elmer Liquid Scintillation Analyzer and data plotted as described previously (E. I. DE […], F. MO, H. J. WIEDEN, Construction of a fully active Cys-less elongation factor Tu: functional role of conserved cysteine 81, Biochimica et biophysica acta 1814(5) (2011) 684-92.). The fluorescent dye 5-(2-iodoacetylaminoethyl)aminonaphthalene-1-sulfonic acid (IAEDANS, λex=336 nm, λem=454 nm) and the fluorescent quencher N-(4-dimethylamino-3,5-dinitrophenyl)maleimide (DDPM) were selected as they have a small reported R0 (˜27 Å). […] This was confirmed to not be due to a difference in EF-Tu concentration and indeed a difference in FRET by trypsin digestion (FIG. 17). […]
This conformational change is an order of magnitude slower than two previously measured GTP rates (0.0016±0.002s^−1).

[6] = Conformational change of labelled EF-Tu·GDP or EF-Tu·GTP upon mixing with 10 mM EDTA, stopped-flow; conditions: excitation 335 nm
[7] = mantGDP complex mixed with excess GTP/GDP, read-out: GDP Dissociation Rate Koff
[8] = mantGTP complex mixed with excess GTP/GDP, read-out: GTP Dissociation Rate koff

Nc1nc2c(ncn2[C@@H]2O[C@H](COP(=O)(O)OP(=O)(O)O)[C@@H](O)[C@H]2O)c(=O)[nH]1 [GDP, guanosine diphosphate]
koff [1, 7]: 0.003 ± 0.001 s⁻¹
koff [2]: 0.45 ± 0.26 s⁻¹
koff [3, 7]: 0.002 ± 0.001 s⁻¹
koff [4, 7]: 0.05 s⁻¹

Nc1nc2c(ncn2[C@@H]2O[C@H](COP(=O)(O)OP(=O)(O)OP(=O)(O)O)[C@@H](O)[C@H]2O)c(=O)[nH]1 [GTP, guanosine triphosphate]
koff [1, 8]: 0.014 ± 0.002 s⁻¹
apparent rate of fluorescence (conformational) change upon mixing with EDTA ([2]; GTP-bound protein, 10 mM EDTA, excitation 280 nm (FRET)): 0.05 ± 0.02 s⁻¹
koff [2]: 0.35 ± 0.19 s⁻¹
koff [3, 8]: 0.02 ± 0.01 s⁻¹
koff [4, 8]: 0.015 ± 0.005 s⁻¹

EF-Tu E202C-Dansyl: Escherichia coli EF-Tu E202C single labelled with Dansyl; conformational biosensor
increase in fluorescence when bound to GTP relative to GDP ([5]; direct excitation at 335 nm): ~1.5 ×
change in fluorescence upon mixing with EDTA, GDP-bound ([6]; EF-Tu·GDP): ~15%
change in fluorescence upon mixing with EDTA, GTP-bound ([6]; EF-Tu·GTP): 5%

EF-Tu T34C L265C-IAEDANS/DDPM: Escherichia coli EF-Tu T34C L265C double labelled with IAEDANS and quencher DDPM; FRET biosensor
IAEDANS fluorescence when bound to GTP relative to GDP ([5]; excitation at 336 nm): ~4 ×
